Test results as given in PubChem BioAssay AID588591 (National Center for Advancing Translational Sciences (NCATS), 2011).
The whole screen tested about 390,000 compounds, of which about 4,700 (1.2%) were called active. This list was built around the results that the source calls inconclusive (neither active nor inactive); the mix of calls is not that of the screen. The call rests on the fitted dose curve; in most records, active means well fitted inhibition curve with a large enough effect; inconclusive means small, poorly fitted or top-dose-only effect, or another doubt; inactive means no such curve, though single readings can be large or run the other way. Potencies beside an inconclusive call are fits to weak or partial responses and may not hold up.

biological target: DNA polymerase eta (Homo sapiens) (UniProt Q9Y253); assay: qHTS for Inhibitors of Polymerase Eta; conditions: recombinant Pol eta, fluorescent DNA replication assay; series mostly up to 114 µM
Outline: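 Fluorescent replication assay: 50 nM final substrate added after a 15 min room-temperature compound preincubation with 10 nM enzyme. Signal taken at 0 min and again at 10 min.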
Potency means the concentration at half of the fitted maximal effect; tags describe the fitted curve by direction and shape.

UniProt Q9Y253, sequence (Q9Y253 whole entry, looked up): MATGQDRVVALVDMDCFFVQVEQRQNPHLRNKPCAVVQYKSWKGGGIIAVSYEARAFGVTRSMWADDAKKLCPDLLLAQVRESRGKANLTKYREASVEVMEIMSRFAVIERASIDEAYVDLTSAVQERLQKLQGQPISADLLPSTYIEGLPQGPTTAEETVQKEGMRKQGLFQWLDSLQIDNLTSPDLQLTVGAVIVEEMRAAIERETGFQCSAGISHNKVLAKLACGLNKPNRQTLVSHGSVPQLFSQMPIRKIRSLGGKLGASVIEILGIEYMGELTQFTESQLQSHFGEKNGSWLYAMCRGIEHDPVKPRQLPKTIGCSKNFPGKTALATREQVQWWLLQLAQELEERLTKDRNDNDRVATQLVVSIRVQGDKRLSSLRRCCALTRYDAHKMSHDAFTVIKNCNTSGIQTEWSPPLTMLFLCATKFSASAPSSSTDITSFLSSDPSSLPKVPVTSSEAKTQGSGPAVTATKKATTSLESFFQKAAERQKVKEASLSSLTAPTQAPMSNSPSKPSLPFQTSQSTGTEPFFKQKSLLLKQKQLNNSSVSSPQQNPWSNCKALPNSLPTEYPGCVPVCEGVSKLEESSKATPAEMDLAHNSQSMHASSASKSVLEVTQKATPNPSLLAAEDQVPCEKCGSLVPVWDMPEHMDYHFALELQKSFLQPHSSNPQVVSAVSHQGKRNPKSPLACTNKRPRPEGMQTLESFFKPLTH

| Structure (SMILES) | Potency |
| --- | --- |
| COc1ccc(NC(=O)/C(Cl)=C(/Cl)S(=O)Cc2ccccc2Cl)cn1 (stereo not given) | inactive |
| CC(C)N(Cc1ccccc1)S(=O)(=O)c1ccc2c(c1)NC(=O)CO2 | inconclusive: 89.1 µM [inhibitor, partial curve, poor fit] |
| Cc1ccc(C(=O)OCC(=O)c2ccc(Cl)s2)s1 | inconclusive: 20 µM [inhibitor, partial curve, poor fit] |
| O=C(NCC(O)CO)c1csc(Nc2cccc3ccccc23)n1 (stereo not given) | inconclusive: 44.7 µM [inhibitor, partial curve, poor fit] |
| CC(=O)c1c(C)[nH]c(C(=O)CSc2ncnc3sc(-c4ccccc4)cc23)c1C | inconclusive: 3.55 µM [inhibitor, partial curve, poor fit] |
| O=C1C=CC2=C3c4cc(O)c(O)cc4CC3(O)COC2=C1O (stereo not given) | active: 0.794 µM |
| CCOc1cc(C(=O)NCC(=O)N2CCC3(CC2)NCCc2[nH]cnc23)cc(OCC)c1OCC | inconclusive: 89.1 µM [inhibitor, partial curve, poor fit] |
| O=C(CN1C(=O)NC2(CCCCCC2)C1=O)N1CCC(Cc2ccccc2)CC1 | inconclusive: 70.8 µM [inhibitor, partial curve, poor fit] |
| CC(C)CCNC(=O)c1ccc(Cn2c(=S)[nH]c3ccccc3c2=O)cc1 | inconclusive: 56.2 µM [inhibitor, partial curve, poor fit] |
| COc1ccc(/C=C2\SC(N3CCc4ccccc4C3)=NC2=O)cc1OC | inconclusive: 35.5 µM [inhibitor, partial curve, poor fit] |
| COc1cccc(CN(C)C(=O)c2ccc3nccnc3c2)c1 | active: 12.6 µM |
| CCCCNc1cc(NC2CCCCC2)c2c3c(onc13)-c1ccccc1C2=O | active: 70.8 µM |
| Nc1c(Br)cc2c([nH]c(=O)c3ccccc32)c1Br | inconclusive: 14.1 µM [inhibitor, partial curve, poor fit] |
| CCOC(=O)c1c(/N=C/c2ccc(OC)cc2O)sc2c1CCN(C)C2 | inconclusive: 17.8 µM [inhibitor, full curve] |
| Nc1ccc(Nc2ccccc2)c(S(=O)(=O)O)c1 | active: 15.8 µM |
| Cc1ccccc1C(=O)N1CCN(c2ccc([N+](=O)[O-])c(NCc3cccnc3)c2)CC1 | inconclusive: 89.1 µM [inhibitor, partial curve, poor fit] |
| NS(=O)(=O)c1ccc2nc(NC(=O)CS(=O)(=O)c3ccc(F)cc3)sc2c1 | active: 79.4 µM |
| O=C(/C=C/c1ccc(Cl)cc1)NC(=S)Nc1ccccc1C(=O)O | active: 56.2 µM |
| Cc1cccc(NC(=O)c2cc([N+](=O)[O-])ccc2NC2CCCCC2)c1 | inconclusive: 3.16 µM [inhibitor, full curve, poor fit] |
| COC(=O)Nc1nc2ccc(-c3n[nH]c(=O)c4ccccc34)cc2[nH]1 | inconclusive: 15.8 µM [inhibitor, partial curve, poor fit] |

| Structure (SMILES) | Potency |
| --- | --- |
| COc1cccc(NS(=O)(=O)c2ccc3[nH]cc(C(=O)NC4CCCCC4)c(=O)c3c2)c1 | active: 89.1 µM |
| COc1ccc(NC(=O)c2cc(-c3ccc(C)o3)nc3ccccc23)cc1 | inconclusive: 56.2 µM [inhibitor, partial curve, poor fit] |
| Cc1cccc(-n2c(O)c(C=Nc3cccc(O)c3)c3ccccc3c2=O)n1 | inconclusive: 79.4 µM [inhibitor, partial curve, poor fit] |
| CCOc1ccc(OCCC(=O)NNC(=O)c2ccncc2)cc1 | inconclusive: 17.8 µM [inhibitor, partial curve, poor fit] |
| CC1(C)Cc2nc3sc4c(=O)[nH]cnc4c3cc2CS1 | inconclusive: 20 µM [inhibitor, full curve, poor fit] |
| CCOc1ccc(C(=O)NCCCCNC(=O)c2ccc(OCC)cc2)cc1 | inactive |
| Cc1ccc(S(=O)(=O)Nc2cc(Cl)c3oc4c(c3c2)C(=O)CC(C)(C)C4)cc1 | inactive |
| O=C(O)CN1C(=O)/C(=C\c2cc(Br)ccc2OCc2ccccc2F)SC1=S | inconclusive: 56.2 µM [inhibitor, partial curve, poor fit] |
| COc1ccc(S(=O)(=O)N2CCCCCC2)cc1NC(=O)CN1C(=O)NC(C)(c2ccc(C)cc2)C1=O (stereo not given) | inconclusive: 0.251 µM [inhibitor, full curve, poor fit] |
| CCSc1nnc(NC(=O)C(C)Sc2nc3ccccc3[nH]2)s1 (stereo not given) | inconclusive: 20 µM [inhibitor, single point] |
| COc1ccc2oc(C(=O)N3CCN(S(=O)(=O)c4cccc([N+](=O)[O-])c4)CC3)c(C)c2c1 | inconclusive: 89.1 µM [inhibitor, partial curve, poor fit] |
| COc1ccc(OC)c(-c2cc(C(F)(F)F)c3c(n2)sc2c(O)cc(=O)[nH]c23)c1 | inconclusive: 28.2 µM [inhibitor, partial curve, poor fit] |
| CCCSc1ccc([C@H]2N[C@@](CC(C)C)(C(=O)OC)[C@H]3C(=O)N(C)C(=O)[C@@H]23)cc1 | inconclusive: 89.1 µM [inhibitor, partial curve, poor fit] |
| Cc1cc(C)nc(NS(=O)(=O)c2ccc(NS(=O)(=O)c3ccc(C#N)cc3)cc2)n1 | inactive |
| O=C(O)c1ccccc1NS(=O)(=O)c1ccc(NN=Cc2ccc(F)cc2)c([N+](=O)[O-])c1 | active: 35.5 µM |
| CCOc1cc(NC(=O)c2cccs2)c(OCC)cc1NC(=O)c1ccco1 | inconclusive: 31.6 µM [inhibitor, partial curve, poor fit] |
| Cc1cc(C)c(C(=O)/C=C/c2ccco2)c(=O)[nH]1 | active: 56.2 µM |
| COc1cc(NC(=O)c2oc3ccccc3c2C)ccc1NC(=O)c1ccco1 | inconclusive: 79.4 µM [inhibitor, partial curve, poor fit] |
| Cc1ccc(C)c(SCC(=O)OCC(=O)c2ccco2)c1 | active: 35.5 µM |
| O=C(Cn1c(=O)oc2ccccc21)NC(=O)NCc1ccco1 | inconclusive: 25.1 µM [inhibitor, partial curve] |
